Measured values as given in article PMC10050012.
These are yes or no findings as the source states them, for the method shown. For some of these results: Binding seen in cells or lysates may run through a third protein. Some entries that bind do so weakly or less than the wild type.

Sequences of proteins named here, by UniProt entry; tags and fusion partners are left off. Residues count along the entry.
UniProt P05107, residues 23-769: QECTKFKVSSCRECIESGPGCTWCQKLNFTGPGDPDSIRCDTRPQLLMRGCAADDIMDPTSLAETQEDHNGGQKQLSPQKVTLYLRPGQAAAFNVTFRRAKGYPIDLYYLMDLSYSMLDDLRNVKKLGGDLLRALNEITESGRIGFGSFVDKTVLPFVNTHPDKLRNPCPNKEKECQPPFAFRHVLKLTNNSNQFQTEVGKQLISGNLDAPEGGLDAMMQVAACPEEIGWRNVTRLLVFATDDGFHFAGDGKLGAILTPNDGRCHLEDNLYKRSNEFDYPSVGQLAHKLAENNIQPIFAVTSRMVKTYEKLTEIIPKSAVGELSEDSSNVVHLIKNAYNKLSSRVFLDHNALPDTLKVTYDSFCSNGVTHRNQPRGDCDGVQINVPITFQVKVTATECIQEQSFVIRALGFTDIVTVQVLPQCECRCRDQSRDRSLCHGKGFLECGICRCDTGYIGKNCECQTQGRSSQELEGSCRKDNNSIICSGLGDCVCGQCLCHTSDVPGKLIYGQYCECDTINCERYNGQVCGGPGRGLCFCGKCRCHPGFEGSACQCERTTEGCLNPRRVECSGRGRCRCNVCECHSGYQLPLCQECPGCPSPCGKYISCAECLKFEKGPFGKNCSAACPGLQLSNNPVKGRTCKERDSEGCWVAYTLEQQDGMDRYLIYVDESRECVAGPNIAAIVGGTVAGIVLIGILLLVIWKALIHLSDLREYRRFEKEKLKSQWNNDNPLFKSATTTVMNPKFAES

Columns and labels:
[1] = molecular target: T1, transglutaminase 2 (human (endogenous in NB4)) (UniProt P21980); experiment: far-Western, overlay or dot blot; modified far-western blot with disuccinimidyl suberate (DSS): bait proteins immunoprecipitated from plasma membrane, renatured and incubated with plasma membrane lysates; bound prey detected by a primary antibody; NB4 WT cells with ATRA for 5 days, also for 2 days, and NB4 WT CD18-/- cells; only the target purified
T1 sequence: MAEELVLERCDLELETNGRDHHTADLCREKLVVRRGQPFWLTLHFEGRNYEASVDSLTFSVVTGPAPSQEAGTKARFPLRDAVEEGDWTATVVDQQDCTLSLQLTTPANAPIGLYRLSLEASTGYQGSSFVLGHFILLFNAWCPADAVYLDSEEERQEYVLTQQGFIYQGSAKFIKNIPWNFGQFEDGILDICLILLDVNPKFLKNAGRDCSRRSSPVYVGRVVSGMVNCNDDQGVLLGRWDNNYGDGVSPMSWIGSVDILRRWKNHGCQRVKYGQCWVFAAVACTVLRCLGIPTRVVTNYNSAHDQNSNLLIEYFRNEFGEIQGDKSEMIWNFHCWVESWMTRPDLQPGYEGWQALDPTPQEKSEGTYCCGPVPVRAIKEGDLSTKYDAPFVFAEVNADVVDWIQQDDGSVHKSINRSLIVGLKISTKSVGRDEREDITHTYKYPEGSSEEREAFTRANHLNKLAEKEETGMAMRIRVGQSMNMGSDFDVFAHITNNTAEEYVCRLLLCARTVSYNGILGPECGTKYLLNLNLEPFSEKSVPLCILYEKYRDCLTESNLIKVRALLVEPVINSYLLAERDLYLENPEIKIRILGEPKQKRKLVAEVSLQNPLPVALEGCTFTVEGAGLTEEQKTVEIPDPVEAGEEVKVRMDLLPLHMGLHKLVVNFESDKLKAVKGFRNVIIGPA

[2] = molecular target: T1, transglutaminase 2 (human (endogenous in NB4)); experiment: co-IP; immunoprecipitation from the plasma membrane fraction (and total cell lysate) of ATRA-treated NB4 WT cells with a polyclonal TG2 antibody and, reciprocally, with antibodies to mTOR, AKT, CD18, p85, PI3K/p110, PTEN and c-SRC; Western blot
[3] = molecular target: T1, transglutaminase 2 (human (endogenous in NB4)); experiment: condition: only cells treated with ATRA + PP2 (20 μM) for 5 days; co-IP; as a1, NB4 WT cells treated with ATRA + PP2 (20 μM, c-SRC inhibitor) for 5 days
[4] = molecular target: T1, transglutaminase 2 (human (endogenous in NB4)); experiment: condition: only cells treated with ATRA + NC9 (30 μM) for 5 days; co-IP; as a1, NB4 WT cells treated with ATRA + NC9 (30 μM, TG2 inhibitor) for 5 days

- binding [1]: binds
- binding [2]: binds
- binding [3]: no binding
- binding [4]: no binding
Substance: CD18 β2-integrin subunit (from UniProt P05107 23-769) (receptor)
